± gives the standard deviation of the averaged measurements. Growth of baker's yeast expressing single-residue variants of Pneumocystis jirovecii dihydrofolate reductase in 8.8 or 44 µM methotrexate (about 75% and 90% inhibition of the wild type). Selection coefficient per generation; 0 = like wild type, above 0 = less sensitive, below 0 = more sensitive or loss of function. No active / inactive call per row; the paper calls resistant above 0.220 (8.8 µM) or 0.243 (44 µM) together with a significance test. At 44 µM about 15% of codons end with one read or none, so the lowest values are floors (replicate rank correlation 0.74; 0.94 at 8.8 µM).
B1: UniProt A0EPZ9; numbered along this chain (parent)
chain: MDWQKSLTLIVALTLSRGIGLKNDLPWKLKSDMMFFSRVTSGLLVTRSTGQMNVVLMGRKTWESLPAHSRPLKNRINVVISRQEVLDLGGGAYHARSLDDALALLSQIYDSTSKIQLNRVFVIGGGELCKAAMEHSRLNRIIATVIHNEVDCDVFFPIDFRSSQSCLPWRKQDHSVLEAWVGSKVPQGKINENGFIYEFEMWIRDI

Variants of: B1
Assay: selection coefficient against synonymous wild-type codons (log2 per generation); higher = faster growth than wild type
Details: with Saccharomyces cerevisiae carrying the variant on a plasmid
Experimental: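 Pooled growth of yeast carrying single-residue variants of P. jirovecii dihydrofolate reductase (own DFR1 gene intact), two passages at 30 °C, three cultures, sequenced before and after. Codons with under 15 starting reads are left out; codons of one change are averaged.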

| Variant | selection coefficient against synonymous wild-type codons (log2) (methotrexate 8.8 µM) | selection coefficient against synonymous wild-type codons (log2) (methotrexate 44 µM) |
| --- | --- | --- |
| K5H | 0.281 ± 0.03 | 0.307 ± 0.064 |
| A179G | 0.047 ± 0.041 | -0.0244 ± 0.093 |
| W27Q | 0.257 ± 0.0067 | 0.254 ± 0.046 |
| W27R | -0.185 ± 0.1 | -0.0905 ± 0.12 |
| W169L | -0.101 ± 0.053 | -0.106 ± 0.14 |
| W169G | -0.444 ± 0.14 | -0.276 ± 0.12 |
| T14F | -0.292 ± 0.068 | -0.193 ± 0.2 |
| I76S | -0.606 ± 0.11 | -0.212 ± 0.045 |
| I76Y | -0.566 ± 0.15 | -0.207 ± 0.047 |
| I76D | -0.698 ± 0.025 | -0.194 ± 0.057 |
| I76F | -0.516 ± 0.093 | -0.127 ± 0.07 |
| P186M | -0.356 ± 0.071 | -0.328 ± 0.017 |
| N118V | -0.153 ± 0.037 | -0.234 ± 0.16 |
| N118G | 0.269 ± 0.03 | 0.378 ± 0.043 |
| G18N | -0.106 ± 0.1 | -0.0513 ± 0.039 |
| G18C | 0.0581 ± 0.046 | 0.097 ± 0.083 |
| D151T | -0.152 ± 0.071 | -0.227 ± 0.088 |
| N148M | -0.223 ± 0.05 | -0.333 ± 0.16 |
| W3G | 0.314 ± 0.11 | 0.332 ± 0.12 |
| W3R | 0.218 ± 0.13 | 0.238 ± 0.13 |
| W3I | 0.0471 ± 0.025 | 0.0291 ± 0.098 |
| W3F | -0.122 ± 0.067 | 0.137 ± 0.072 |
| L128H | -0.251 ± 0.0066 | -0.234 ± 0.19 |

| Variant | selection coefficient against synonymous wild-type codons (log2) (methotrexate 8.8 µM) | selection coefficient against synonymous wild-type codons (log2) (methotrexate 44 µM) |
| --- | --- | --- |
| L128S | -0.627 ± 0.098 | -0.337 ± 0.1 |
| S37V | -0.435 ± 0.15 | -0.191 ± 0.11 |
| S37E | 0.469 ± 0.012 | 0.531 ± 0.022 |
| S111W | -0.398 ± 0.025 | -0.238 ± 0.15 |
| Y109S | 0.136 ± 0.056 | 0.111 ± 0.14 |
| Y109D | -0.0143 ± 0.024 | -0.00771 ± 0.14 |
| D87A | -0.275 ± 0.041 | -0.194 ± 0.17 |
| S31A | -0.113 ± 0.045 | -0.17 ± 0.16 |
| N139M | -0.321 ± 0.076 | -0.302 ± 0.12 |
| N139K | -0.102 ± 0.028 | -0.144 ± 0.096 |
| M201H | 0.0383 ± 0.16 | -0.027 ± 0.093 |
| M201E | -0.0113 ± 0.089 | -0.0286 ± 0.19 |
| E84I | -0.498 ± 0.14 | -0.183 ± 0.048 |
| R75A | -0.37 ± 0.087 | -0.0894 ± 0.074 |
| R75I | -0.494 ± 0.089 | -0.00194 ± 0.14 |
| Q172A | 0.0534 ± 0.022 | -0.0166 ± 0.14 |
| T49S | -0.0114 ± 0.049 | -0.114 ± 0.16 |
| T49C | -0.146 ± 0.064 | -0.157 ± 0.16 |
| Q164W | -0.167 ± 0.049 | -0.284 ± 0.065 |
| S48I | -0.197 ± 0.025 | -0.169 ± 0.13 |
| W62F | -0.318 ± 0.08 | -0.211 ± 0.11 |
| L13G | 0.527 ± 0.025 | 0.599 ± 0.027 |
| N74K | -0.404 ± 0.0087 | -0.217 ± 0.15 |

| Variant | selection coefficient against synonymous wild-type codons (log2) (methotrexate 8.8 µM) | selection coefficient against synonymous wild-type codons (log2) (methotrexate 44 µM) |
| --- | --- | --- |
| N74C | -0.391 ± 0.13 | -0.349 ± 0.052 |
| N74M | -0.418 ± 0.083 | -0.0907 ± 0.18 |
| N74S | -0.335 ± 0.061 | -0.182 ± 0.11 |
| G182L | -0.409 ± 0.096 | -0.388 ± 0.058 |
| G182I | -0.494 ± 0.16 | -0.27 ± 0.038 |
| F155W | 0.0171 ± 0.017 | 0.0377 ± 0.027 |
| M57P | -0.42 ± 0.029 | -0.172 ± 0.029 |
| V79R | -0.595 ± 0.095 | -0.144 ± 0.2 |
| D32K | -0.547 ± 0.08 | -0.341 ± 0.031 |
| D32A | -0.563 ± 0.062 | -0.319 ± 0.14 |
| I10T | 0.653 ± 0.031 | 0.778 ± 0.033 |
| I10V | 0.475 ± 0.038 | 0.557 ± 0.056 |
| I10H | 0.905 ± 0.048 | 1.18 ± 0.043 |
| I10P | -0.0446 ± 0.066 | 0.163 ± 0.11 |
| A101L | -0.842 ± 0.076 | -0.375 ± 0.086 |
| A101F | -0.544 ± 0.12 | -0.328 ± 0.022 |
| A101M | -0.824 ± 0.16 | -0.431 ± 0.039 |
| L102P | -0.668 ± 0.046 | -0.165 ± 0.04 |
| Q116I | -0.264 ± 0.1 | -0.0333 ± 0.083 |
| Q116S | -0.0638 ± 0.052 | -0.0706 ± 0.11 |
| I108S | -0.508 ± 0.12 | -0.138 ± 0.11 |
| I108P | -0.538 ± 0.087 | -0.106 ± 0.038 |
| L25P | -0.181 ± 0.09 | -0.168 ± 0.11 |

| Variant | selection coefficient against synonymous wild-type codons (log2) (methotrexate 8.8 µM) | selection coefficient against synonymous wild-type codons (log2) (methotrexate 44 µM) |
| --- | --- | --- |
| L25D | -0.152 ± 0.022 | -0.147 ± 0.22 |
| E134D | -0.117 ± 0.027 | -0.216 ± 0.054 |
| E134R | -0.0884 ± 0.045 | -0.129 ± 0.13 |
| L138W | 0.139 ± 0.038 | 0.224 ± 0.11 |
| L138Q | -0.119 ± 0.062 | -0.0791 ± 0.21 |
| G89P | 0.082 ± 0.024 | 0.12 ± 0.0037 |
| G89R | -0.178 ± 0.092 | -0.0933 ± 0.25 |
| G89E | 0.0552 ± 0.018 | 0.113 ± 0.089 |
| E63F | -0.385 ± 0.15 | -0.213 ± 0.026 |
| E63L | -0.452 ± 0.13 | -0.273 ± 0.086 |
| R204L | -0.378 ± 0.059 | -0.317 ± 0.065 |
| R204W | -0.402 ± 0.065 | -0.371 ± 0.11 |
| D2M | 0.0835 ± 0.095 | 0.243 ± 0.12 |
| D2T | 0.121 ± 0.063 | 0.179 ± 0.14 |
| D2S | 0.082 ± 0.061 | 0.0699 ± 0.14 |
| K184I | -0.222 ± 0.053 | -0.326 ± 0.027 |
| K184G | -0.102 ± 0.025 | -0.243 ± 0.14 |
| K184Q | -0.0879 ± 0.038 | -0.124 ± 0.035 |
| Y197L | -0.292 ± 0.072 | -0.208 ± 0.12 |
| E178Q | -0.0855 ± 0.046 | -0.317 ± 0.033 |
| E127C | -0.449 ± 0.14 | -0.243 ± 0.038 |
| I190H | -0.191 ± 0.049 | -0.28 ± 0.12 |
| I190K | -0.118 ± 0.053 | -0.312 ± 0.19 |

| Variant | selection coefficient against synonymous wild-type codons (log2) (methotrexate 8.8 µM) | selection coefficient against synonymous wild-type codons (log2) (methotrexate 44 µM) |
| --- | --- | --- |
| L177A | 0.0563 ± 0.068 | -0.026 ± 0.14 |
| P66R | -0.115 ± 0.1 | -0.133 ± 0.13 |
| F36N | -0.299 ± 0.14 | 0.0358 ± 0.074 |
| T46K | -0.0355 ± 0.044 | -0.00785 ± 0.041 |
| G194L | -0.503 ± 0.13 | -0.412 ± 0.14 |
| G194W | -0.535 ± 0.015 | -0.472 ± 0.15 |
| G194V | -0.336 ± 0.17 | -0.215 ± 0.26 |
| G20M | -0.517 ± 0.12 | -0.294 ± 0.097 |
| G20D | -0.24 ± 0.12 | -0.204 ± 0.14 |
| P26N | 0.125 ± 0.039 | 0.0213 ± 0.08 |
| S6E | 0.497 ± 0.023 | 0.489 ± 0.025 |
| S6T | 0.21 ± 0.13 | 0.107 ± 0.15 |
| R170Q | 0.0127 ± 0.013 | -0.0509 ± 0.049 |
| R170G | -0.0604 ± 0.054 | -0.0702 ± 0.1 |
| R170C | -0.0796 ± 0.036 | -0.0767 ± 0.18 |
| A67L | -0.0794 ± 0.087 | -0.022 ± 0.088 |
| A67N | -0.12 ± 0.17 | 0.0523 ± 0.085 |
| L29M | 0.511 ± 0.01 | 0.602 ± 0.031 |
| L65E | -0.16 ± 0.028 | -0.245 ± 0.15 |
| N191W | -0.352 ± 0.081 | -0.287 ± 0.13 |
| E198M | -0.308 ± 0.0058 | -0.312 ± 0.17 |
| S41C | -0.116 ± 0.029 | -0.0599 ± 0.048 |
| S41Q | -0.0311 ± 0.084 | -0.00859 ± 0.1 |
